Assay results published in the antibiotic and cytotoxicity screens of Wong et al. (2023).
The other results are listed elsewhere or left out.

system: S. aureus RN4220; assay: growth inhibition call (relative growth <= 0.2); details: 50 µM

Growth inhibition call, inactive:
C[C@H]1CN([C@@H](C)CO)C(=O)c2ccccc2-c2ccccc2CO[C@@H]1CN(C)Cc1ccc(Cl)c(Cl)c1
C[C@@H]1ON(c2ccc(I)cc2)[C@H](c2ccc(OC(=O)OC(C)(C)C)cc2)[C@H]1C(=O)N1C(=O)OC[C@H]1Cc1ccccc1
C[C@H](CO)N1C[C@H](C)[C@@H](CN(C)Cc2ccccc2)Oc2ccc(NC(=O)Cn3cnnn3)cc2C1=O
C[C@@H]1CN([C@H](C)CO)C(=O)c2cccc(NC(=O)C3CC3)c2O[C@H]1CN(C)Cc1ccc(Oc2ccccc2)cc1
C[C@@H]1CN([C@H](C)CO)C(=O)c2cc(C3=CCCC3)cnc2O[C@H]1CN(C)S(=O)(=O)c1cn(C)cn1
C[C@H](CO)N1C[C@H](C)[C@H](CN(C)C(=O)c2ccccc2)OCCCC[C@H](C)Oc2ccc(NC(=O)c3ccccc3)cc2C1=O
Cc1noc(C)c1S(=O)(=O)Nc1cccc2c1O[C@@H](CN(C)Cc1ccncc1)[C@@H](C)CN([C@@H](C)CO)C2=O
COc1ccc(NC(=O)Nc2ccc3c(c2)C(=O)N([C@H](C)CO)C[C@H](C)[C@H](CN(C)S(=O)(=O)c2ccc(F)cc2)OCCCC[C@H](C)O3)cc1
CCS(=O)(=O)Nc1ccc2c(c1)C(=O)N(C)[C@@H]1CC[C@@H](CC(=O)N[C@H]3CCN(Cc4ccccc4)C3)O[C@@H]1CO2
C[C@H]1CN([C@@H](C)CO)C(=O)c2cc(NC(=O)Nc3cccc4ccccc34)ccc2O[C@H]1CN(C)Cc1ccc(C(=O)Nc2ccccc2N)cc1
CC(=O)N1[C@H](CO)[C@@H](c2ccccc2)[C@H]1CNC(=O)CN1CCOCC1
C[C@H]1CN([C@@H](C)CO)C(=O)Cc2cc(NC(=O)Nc3ccc4c(c3)OCO4)ccc2O[C@@H]1CN(C)Cc1ccc(C(=O)Nc2ccccc2N)cc1
COc1ccc([C@H]2CNCCN2)cc1
CC(C)NC(=O)Nc1ccc2c(c1)C(=O)N([C@H](C)CO)C[C@@H](C)[C@@H](CN(C)S(=O)(=O)c1ccc(Cl)cc1)O2
Cc1noc(C)c1NC(=O)Nc1ccc2c(c1)C(=O)N([C@H](C)CO)C[C@H](C)[C@@H](CN(C)C(=O)Nc1c(C)noc1C)OCCCC[C@@H](C)O2
Cc1ccc(S(=O)(=O)Nc2ccc3c(c2)C(=O)N([C@H](C)CO)C[C@@H](C)[C@@H](CN(C)Cc2ccccc2)OCCCC[C@@H](C)O3)cc1
O=[N+]([O-])c1ncn(Cc2ccccn2)n1
C[C@H](CO)N1C[C@H](C)[C@@H](CN(C)Cc2ccc(Cl)c(Cl)c2)Oc2ccc(NS(=O)(=O)c3ccccc3)cc2CC1=O
O=C(C[C@H]1CC[C@@H]2[C@H](COC[C@H](O)CN2S(=O)(=O)c2ccccc2)O1)N1CCOCC1
COc1ccc(CN(C)C[C@H]2Oc3c(NS(=O)(=O)c4c(C)noc4C)cccc3C(=O)N([C@H](C)CO)C[C@H]2C)cc1
COc1ccc(CN(C)C[C@H]2OCCCC[C@H](C)Oc3ccc(NS(=O)(=O)c4ccc(Cl)cc4)cc3C(=O)N([C@H](C)CO)C[C@H]2C)cc1
C[C@H]1CN([C@@H](C)CO)C(=O)c2cc(NS(=O)(=O)c3ccccc3)ccc2O[C@@H]1CN(C)C(=O)Nc1cccc2ccccc12
Cc1noc(C)c1S(=O)(=O)Nc1ccc2c(c1)CC(=O)N([C@H](C)CO)C[C@@H](C)[C@@H](CN(C)Cc1ccc(Oc3ccccc3)cc1)O2
CC(C)N1C[C@H](C)[C@@H](CN(C)Cc2ccc(Oc3ccccc3)cc2)Oc2c(NC(=O)c3cccnc3)cccc2C1=O
CC1=CC2(CO)C(=O)[C@]3(CO3)C1[C@H]1[C@]2(C)C=C(CO)C(=O)[C@]12CO2 (some centres undefined)
C[C@H](CO)N1C[C@H](C)[C@@H](CN(C)C(=O)CCC(F)(F)F)OCCCC[C@H](C)Oc2ccc(NC(=O)CCC(F)(F)F)cc2C1=O
Cc1ccc(S(=O)(=O)Nc2ccc3c(c2)CC(=O)N([C@@H](C)CO)C[C@@H](C)[C@@H](CN(C)S(=O)(=O)c2cn(C)cn2)O3)cc1
C[C@H](O)C#Cc1ccc2c(c1)O[C@@H](CN(C)C)[C@@H](C)CN([C@@H](C)CO)S2(=O)=O
C[C@H](CO)N1C[C@H](C)[C@H](CN(C)Cc2ccc(Oc3ccccc3)cc2)Oc2ncc(-c3cccnc3)cc2C1=O
